SMILES strings stand for the structures. Several values for one entry are separate records, joined by “and”; a condition that tells them apart may be missing. Equal entries are not always repeated. Structures can show the parent of a compound that is named as a salt. The whole screen tested about 1,800 compounds, of which about 50 (3%) showed activity. The list shows a part of the results.
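Also: fibroblasts sorted 14 days after bleomycin, GFP+ and GFP− mixed 1:1 in 384-well plates (GFP− as in-well control), imaged after Hoechst and NucView530 staining, reference wells lacked compound.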

The assay relates to mouse p16Ink4a+/- lung fibroblasts (INKBRITE, bleomycin-injured). Briefly: percentage of GFP+ (p16Ink4a+) fibroblasts among all cells in well; higher = less depletion of p16Ink4a+ cells, active = 20 or less. The note with it: 1 µM; 3 days.
Consider `O=C(Nc1cccc(Cl)c1)c1ccccn1`, for which the “percentage of GFP+” value is inactive: 50.9%.
As for `O=C1NC(=O)/C(=C/c2ccc3nccc(-c4ccncc4)c3c2)S1`, the “percentage of GFP+” value was inactive: 33.7%.
Take `NC(=O)c1ncn([C@@H]2O[C@H](CO)[C@@H](O)[C@@H]2O)c1O` [Mizoribine]: the “percentage of GFP+” value was inactive: 36.6%.
As for `CS(=O)(=O)N1CCc2c(-c3cnc(N)nc3)nc(N3CCOCC3)nc21`, the “percentage of GFP+” value was inactive: 43.5%.
`Cc1ncc([N+](=O)[O-])n1CC(C)O` (stereo not given) [Secnidazole]: the “percentage of GFP+” value is inactive: 39.1%.
Consider `C[C@@H]1O[C@@H](O[C@H]2[C@H](Oc3cc(O)c(C(=O)CCc4ccc(O)cc4)c(O)c3)O[C@H](CO)[C@@H](O)[C@@H]2O)[C@H](O)[C@H](O)[C@H]1O` [Naringin Dihydrochalcone], for which the “percentage of GFP+” value is inactive: 41.7%.
In the case of `C[C@@H](CN1CC(=O)NC(=O)C1)N1CC(=O)NC(=O)C1` [Dexrazoxane], the “percentage of GFP+” value is inactive: 37.4%.
In the case of `O=C1c2c(O)cccc2[C@H]([C@@H]2O[C@H](CO)[C@@H](O)[C@H](O)[C@H]2O)c2cc(CO)cc(O)c21` [Aloin], the “percentage of GFP+” value was inactive: 20.8%.
For the compound `COc1ccc(-c2ccc3c(N4CCOC[C@@H]4C)nc(N4CCOC[C@@H]4C)nc3n2)cc1CO`, the “percentage of GFP+” value is inactive: 40.4%.
The figure for `c1cnc2cc3c(cc2n1)C1CNCC3C1` [Varenicline Tartrate] is inactive: 49.1%; for `CC1CNc2c(cccc2S(=O)(=O)N[C@@H](CCCN=C(N)N)C(=O)N2CC[C@@H](C)C[C@@H]2C(=O)O)C1` (stereo not given in full) [Argatroban] it is inactive: 38.9%.
`C[C@]12CC[C@H](O)CC1=CCC1C2CC[C@]2(C)C(n3cnc4ccccc43)=CCC12` (stereo not given in full) [Galeterone]: the “percentage of GFP+” value is inactive: 38.1%.
The figure for `C[C@H](CCC(=O)O)[C@H]1CC[C@H]2[C@@H]3C[C@H](O)[C@@H]4C[C@H](O)CC[C@]4(C)[C@H]3CC[C@]12C` [Hyodeoxycholic acid (HDCA)] is inactive: 46.4%; for `CCN1CC(CCN2CCOCC2)C(c2ccccc2)(c2ccccc2)C1=O` (stereo not given) [Doxapram] it is inactive: 44%.
In the case of `N=C(N)NS(=O)(=O)c1ccc(N)cc1` [Sulfaguanidine], the “percentage of GFP+” value was inactive: 50.6%.
As for `CNC(=O)c1cc(Oc2ccc(NC(=O)Nc3cc(C(C)(C)C)nn3-c3ccc4ncccc4c3)c(F)c2)ccn1` [Rebastinib], the “percentage of GFP+” value is inactive: 39.9%.
For the compound `CC1=CC(=O)c2ccccc2C1=O` [Menadione], the “percentage of GFP+” value is inactive: 46.8%.
`CCS(=O)(=O)c1cccc(-c2cc(C(=O)NC3CCN(C)CC3)c(C)c3[nH]c4ncc(C)cc4c23)c1`: the “percentage of GFP+” value is inactive: 42.7%.
As to `COc1cc(N2CCC(N3CCN(C)CC3)CC2)ccc1Nc1ncc(Cl)c(Nc2ccccc2S(=O)(=O)C(C)C)n1`, the “percentage of GFP+” value is inactive: 45.9%.
The result for `O=C(c1ccccc1)c1ccc2n1CCC2C(=O)O` (stereo not given) [Ketorolac] reads inactive: 38.6%; that for `O=C(NCCS(=O)(=O)c1ccc(C(F)(F)F)cn1)c1ccc(Cl)cc1`, inactive: 49.6%.
With `CNC1CCCN(c2c(F)cc3c(=O)c(C(=O)O)cn(C4CC4)c3c2OC)C1` (stereo not given) [Balofloxacin], the “percentage of GFP+” value was inactive: 49.5%.
The figure for `C/C(O)=C(\C#N)C(=O)Nc1ccc(C(F)(F)F)cc1` [Teriflunomide] is inactive: 47%; for `CCOc1cc2ncc(C#N)c(Nc3ccc(F)c(Cl)c3)c2cc1NC(=O)/C=C/CN(C)C` [Pelitinib] it is inactive: 39.4%; for `Cc1cc(Cn2cnc3c2C[C@@H](C(=O)O)N(C(=O)C(c2ccccc2)c2ccccc2)C3)ccc1N(C)C` it is inactive: 40.8%.
Consider `NS(=O)(=O)C#Cc1ccccc1` [Pifithrin], for which the “percentage of GFP+” value is inactive: 23.9%.
Turning to `CN1CCc2c(c3ccccc3n2Cc2ccc(C(=O)NO)cc2)C1` [Tubastatin A HCl], the “percentage of GFP+” value is inactive: 53.9% and inactive: 45%.
Turning to `C[C@@H]1CCN(C(=O)CC#N)C[C@@H]1N(C)c1ncnc2[nH]ccc12` [Tofacitinib], the “percentage of GFP+” value was inactive: 49.8% and inactive: 57.7%.
For `CNC(=O)c1ccc(C)c(-n2c(C)cc(OCc3ccc(F)cc3F)c(Br)c2=O)c1`, the “percentage of GFP+” value was inactive: 54.9%.
For `Oc1nc(-c2ccc(C(F)(F)F)cc2)nc2c1CSCC2`, the “percentage of GFP+” value was inactive: 50.6%.
Consider `Cc1coc2c1C(=O)C(=O)c1c-2ccc2c1CCCC2(C)C` [Tanshinone IIA], for which the “percentage of GFP+” value is inactive: 33.7%.
For the compound `NC1(c2ccc(-c3nc4ccn5c(O)nnc5c4cc3-c3ccccc3)cc2)CCC1`, the “percentage of GFP+” value was inactive: 38.8%.
The figure for `CCN1CCN(Cc2ccc(-c3cc4c(N[C@H](C)c5ccccc5)ncnc4[nH]3)cc2)CC1` is inactive: 45.5%; for `COc1cc(Br)c(Nc2nc(-c3c(C)nc4ncccn34)cs2)c(Br)c1` it is inactive: 26.7%.
On to `CN1CCN2c3ncccc3Cc3ccccc3C2C1` (stereo not given) [Mirtazapine], for which the “percentage of GFP+” value is inactive: 50.3%.
On to `OC[C@H]1O[C@@H](n2cnc3c(O)ncnc32)[C@H](O)[C@@H]1O` [Inosine], for which the “percentage of GFP+” value was inactive: 47.7%.
The result for `CC1=NC(N)=C(C(=O)OC2CN(C(c3ccccc3)c3ccccc3)C2)C(c2cccc([N+](=O)[O-])c2)/C1=C(/O)OC(C)C` (stereo not given) [Azelnidipine] reads inactive: 42.5%; that for `C=CCc1ccc(O)c(-c2cc(CC=C)ccc2O)c1` [Magnolol], inactive: 44.7%; that for `CC1=NN(c2ccc(C(=O)O)cc2)C(=O)/C1=C\c1ccc(-c2cc(C)c(C)cc2[N+](=O)[O-])o1`, inactive: 40.6%.
The result for `CC(C)c1cc(-c2nnc(O)n2-c2ccc3c(ccn3C)c2)c(O)cc1O` [Ganetespib] reads active: 4.48%.
The figure for `C#CCC(Cc1cnc2nc(N)nc(N)c2n1)c1ccc(C(=O)N[C@@H](CCC(=O)O)C(=O)O)cc1` (stereo not given in full) [Pralatrexate] is inactive: 40.7%.
Regarding `CC(=O)OCC(=O)[C@@]12OC(C)(C)O[C@@H]1C[C@H]1[C@@H]3C[C@H](F)C4=CC(=O)C=C[C@]4(C)[C@@]3(F)[C@@H](O)C[C@@]12C` [Fluocinonide], the “percentage of GFP+” value is inactive: 33.9%.
Turning to `CO/N=C(\C(=O)N[C@@H]1C(=O)N2C(C(=O)OCOC(=O)C(C)(C)C)=C(/C=C\c3scnc3C)CS[C@H]12)c1csc(N)n1` [Cefditoren Pivoxil], the “percentage of GFP+” value was inactive: 58.9%.
Turning to `CCCC(=O)Nc1cccc(NC(=O)c2ccccc2Br)c1`, the “percentage of GFP+” value was inactive: 51.2%.
With `COc1cc2ncnc(Nc3ccc(O)c(Br)c3)c2cc1OC`, the “percentage of GFP+” value is inactive: 50.3%.
The figure for `CNC(=O)[C@H](Cc1ccccc1)NC(=O)[C@H](CC(C)C)[C@H](CSc1cccs1)C(=O)NO` [Batimastat] is inactive: 41.9%; for `COc1ccc(S(=O)(=O)N(C(C)=O)c2ccccc2/C=C/c2cc[n+]([O-])cc2)cc1` it is inactive: 31.6%; for `Cn1cncc1[C@@](N)(c1ccc(Cl)cc1)c1ccc2c(c1)c(-c1cccc(Cl)c1)cc(=O)n2C` [Tipifarnib] it is inactive: 47.1%.
The figure for `COc1ccc2ccc(=O)oc2c1CC=C(C)C` [Osthol] is inactive: 40.1%.
As to `Cc1cc(C(C)(C)C)cc(C)c1CC1=NCCN1` [Xylometazoline], the “percentage of GFP+” value was inactive: 40.3%.
Take `Cc1cc(F)c(Nc2ncnc3cc(OCc4ccccc4)ccc23)cc1O`: the “percentage of GFP+” value was inactive: 37.9%.
Consider `NS(=O)(=O)c1ccc(NC(=O)Nc2ccc(F)cc2)cc1`, for which the “percentage of GFP+” value was inactive: 43%.
For the compound `Cn1cc(-c2ccc3nnc(C(F)(F)c4ccc5ncccc5c4)n3n2)cn1`, the “percentage of GFP+” value was inactive: 45.4%.
With `Cc1cc(Nc2cc(N3CCN(C)CC3)nc(/C=C/c3ccccc3)n2)n[nH]1`, the “percentage of GFP+” value was inactive: 40.7%.
As for `COc1cc(NS(=O)(=O)c2ccc(N)cc2)nc(OC)n1` [Sulfadimethoxine], the “percentage of GFP+” value was inactive: 42.5%.
The figure for `COc1ccnc2[nH]cc(C(=O)C(=O)N3CCN(C(=O)c4ccccc4)C[C@H]3C)c12` is inactive: 47.8%; for `O=S(=O)(c1ccccc1)N(CC(F)(F)F)c1ccc(C(O)(C(F)(F)F)C(F)(F)F)cc1` it is inactive: 47%; for `Cc1cccc(-c2[nH]ncc2-c2ccc3ncccc3n2)n1` it is inactive: 42.3%.
With `CN[C@@H](C)C(=O)N[C@H](C(=O)N1CCC[C@H]1C(=O)Nc1snnc1-c1ccccc1)C1CCCCC1`, the “percentage of GFP+” value is inactive: 21.9%.
The result for `COC(=O)CCSCc1ccc(-c2onc(C)c2NC(=O)OC(C)c2ccccc2Cl)cc1` (stereo not given) reads inactive: 43.9%; that for `CCCCNc1ccc(C(=O)OCCN(C)C)cc1` [Tetracaine], inactive: 34.1%.
`CC(=O)O[C@H]1C[C@@H]2CC[C@@H]3[C@H](CC[C@@]4(C)[C@H]3C[C@H]([N+]3(C)CCCCC3)[C@@H]4OC(C)=O)[C@@]2(C)C[C@@H]1N1CCCCC1` [Vecuronium]: the “percentage of GFP+” value is inactive: 47%.
In the case of `CNCc1ccc(C)c(NC(=O)c2ccc(Nc3nc(-c4ccccc4)c4ccccc4n3)cc2)c1`, the “percentage of GFP+” value is inactive: 47.4%.
With `C#C[C@]1(O)CC[C@H]2[C@@H]3CCC4=CC(=O)CC[C@@H]4[C@H]3CC[C@@]21CC` [Levonorgestrel], the “percentage of GFP+” value is inactive: 39.7%.
Take `COc1cc(/C=C/C(=O)N2CCN(CC(=O)N3CCCC3)CC2)cc(OC)c1OC` [Cinepazide maleate]: the “percentage of GFP+” value is inactive: 45.4%.
On to `COc1cccc2c1C(=O)c1c(O)c3c(c(O)c1C2=O)C[C@@](O)(C(=O)CO)C[C@@H]3O[C@H]1C[C@H](N)[C@H](O[C@@H]2CCCCO2)[C@H](C)O1` [Pirarubicin], for which the “percentage of GFP+” value is inactive: 24%.
With `CC(C)c1nc(N(C)S(C)(=O)=O)nc(-c2ccc(F)cc2)c1/C=C/[C@@H](O)C[C@@H](O)CC(=O)O` [Rosuvastatin, Rosuvastatin Calcium], the “percentage of GFP+” value was inactive: 41.7%.
As for `NC(=O)c1cnc(N[C@@H]2CCCC[C@H]2N)nc1Nc1cccc(-n2nccn2)c1`, the “percentage of GFP+” value is inactive: 49.5%.
For the compound `O=C(Nc1cccc(Nc2ncc(Br)c(NCCc3c[nH]cn3)n2)c1)N1CCCC1`, the “percentage of GFP+” value is inactive: 38.5%.
The result for `CC(C)(Sc1cc(C(C)(C)C)c(O)c(C(C)(C)C)c1)Sc1cc(C(C)(C)C)c(O)c(C(C)(C)C)c1` [Probucol] reads inactive: 36.9%.

Values taken from the supplement of paper PMC11060735.
